Data as given in PubChem BioAssay (NCATS).
“And” between values parts separate entries of the source, which are not always exact repeats. Equal values may be shown once. This list was built around the results that the source calls inconclusive (neither active nor inactive); the mix of calls is not that of the screen. For part of these data: Where the call is inconclusive, the potency comes from a doubtful curve fit. The source made the active and inactive calls. Calls come from the whole dose curve; as a rule, active = well fitted curve in the direction sought with a large enough effect; inconclusive = small, poorly fitted or top-dose-only effect, or another doubt; inactive = no such curve, though single readings can be large; an effect the other way counts as inactive or inconclusive.

Tests used:
[1] = Viability qHTS for spleen associated tyrosine kinase inhibitor (SYKi) naive MV4-11 cells (AID 1963823); details: MV4-11 AML viability, CellTiter-Glo luminescence, 72 h; viability (% of control): at 45 µM (top of the series); note: nearly all actives have a fitted effect of over 40% in size
Outline: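 In this viability screen, compounds acted on SYK inhibitor naive MV4-11 cells for three days (72 hr, 37 C). Remaining viable cells were measured by CellTiter-Glo luminescence following a 10 min room-temperature development.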

[2] = Viability qHTS for spleen associated tyrosine kinase inhibitor (SYKi) drug resistant MV4-11 cells (AID 1963824); note: nearly all actives have a fitted effect of over 35% in size
Outline: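 SYK inhibitor-resistant MV4-11 AML cells, 500 per well, added to predispensed compounds and incubated 72 hr at 37 C, 5% CO2. Viability measured by CellTiter-Glo luminescence after 10 min at room temperature.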

[3] = Quantitative highthroughput screen to assess conditional lethalithy of NOMO1 cells grown in RPMI1640 with untreated serum (RPMI+s) (AID 1963876); details: NOMO1 AML cells in RPMI+serum, CellTiter-Glo viability, 48 h; viability: at 45.8 µM (top of the series); note: nearly all actives have a fitted effect of over 35% in size
Outline: (§1)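 Each medium arm—HPLM with 10% dialyzed FBS, or RPMI1640 with 5 mM glucose and 10% untreated or dialyzed FBS—was screened against an 11-point, 3-fold compound titration for 48 h at 37 °C, with CellTiter-Glo luminescence as endpoint.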

[4] = Quantitative highthroughput screen to assess conditional lethalithy of NOMO1 cells grown in RPMI1640 with dialyzed fetal bovine serum (RPMI+ds) (AID 1963877); note: nearly all actives have a fitted effect of over 30% in size;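 for Viability: 100% = DMSO control wells and 0% = empty wells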
Outline: as §1

[5] = Quantitative highthroughput screen to assess conditional lethalithy of NOMO1 cells grown in Human Plasma-Like Medium with dialyzed fetal bovine serum (HPLM+ds) (AID 1963878); details: NOMO1 AML cells in HPLM+ds, CellTiter-Glo viability, 48 h; viability: at 45.8 µM (top of the series); note: nearly all actives have a fitted effect of over 35% in size;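 for Viability: 100% = DMSO wells and 0% = empty wells on each plate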
Outline: as §1

[6] = Quantitative highthroughput screen to assess conditional lethalithy of P12 Ichikawa cells grown in RPMI1640 with dialyzed fetal bovine serum (RPMI+ds) (AID 1963880); details: Potency: P12-Ichikawa viability; note: nearly all actives have a fitted effect of over 35% in size
Outline: as §1

[7] = Quantitative highthroughput screen to assess conditional lethalithy of SEM cells grown in RPMI1640 with unreated serum (RPMI+s) (AID 1963883); details: SEM B-ALL cells, CellTiter-Glo viability, 48 h; viability: at 45.8 µM (top of the series); note: nearly all actives have a fitted effect of over 35% in size
Outline: as §1

[8] = Quantitative highthroughput screen to assess conditional lethalithy of SEM cells grown in RPMI1640 with dialyzed fetal bovine serum (RPMI+ds) (AID 1963884); details: SEM B-ALL cells, RPMI+dialyzed FBS, CellTiter-Glo viability, 48 h; viability: at 45.8 µM (top of the series); note: nearly all actives have a fitted effect of over 35% in size
Outline: as §1

[9] = Cellular viability qHTS for adrenocortical cancer (ACC) cell line SW-13 (AID 1963989); details: SW-13 ACC cells viability, CellTiter-Glo, 48 h; activity (max response): stronger effect = lower value; note: nearly all actives have a fitted effect of over 65% in size;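 for activity (max response): cells grown in serum-free medium with ITS supplement; % is set by controls: 0 for no effect and ±100 for the full control effect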
Outline: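 48 h treatment, SW-13 in ITS/DMEM serum-free; doses up to 46 uM; readout CellTiter-Glo luminescence; curve fit four-parameter logistic.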

[10] = Cellular viability qHTS for adrenocortical cancer (ACC) cell line NCI-H295R (AID 1963990); details: CellTiter-Glo ATP luminescence, 48 h; activity change, negative = viability loss: at 46.1 µM (top of the series); note: nearly all actives have a fitted effect of over 60% in size
Outline: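 Compound titrations (up to 46 uM final) are applied to NCI-H295R cultures for 48 h at 37C. Viable cell number is estimated by CellTiter-Glo signal, normalised to DMSO and doxorubicin controls.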

[11] = Quantitative highthroughput screen to assess conditional lethalithy of SEM cells grown in Human Plasma-Like Medium with dialyzed fetal bovine serum (HPLM+ds) (AID 1963882); note: nearly all actives have a fitted effect of over 35% in size
Outline: as §1

[12] = Quantitative highthroughput screen to assess conditional lethalithy of P12 Ichikawa cells grown in RPMI1640 with untreated serum (RPMI+s) (AID 1963881); details: Potency: viability; note: nearly all actives have a fitted effect of over 35% in size;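 for Viability: 100% = DMSO wells and 0% = empty wells without cells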
Outline: as §1
Potency is the fitted concentration of half-maximal effect; tags give direction and shape of the fitted curve.

SMILES: CCC[C@H](Nc1nc(-c2ccc(NC(=O)NCC)c(OC)c2)ncc1C)c1cccnc1
- Potency [1]: active: 0.0742 µM
- Potency [2]: active: 0.118 µM
- Potency [3]: inconclusive: 0.0469 µM [cytotoxic, full curve]
- Potency [4]: inconclusive: 0.0372 µM [cytotoxic, full curve]
- Potency [5]: inconclusive: 0.0372 µM [cytotoxic, full curve]
- Potency [6]: active: 0.0418 µM
- Potency [7]: inconclusive: 0.0418 µM [cytotoxic, full curve, poor fit]
- Potency [8]: inconclusive: 0.0148 µM [cytotoxic, full curve, poor fit]
- Potency [9]: active: 0.224 µM
- Potency [10]: inconclusive: 0.251 µM [cytotoxic, full curve, poor fit]

SMILES: NNCCc1ccccc1
- Potency [1]: inconclusive: 14.8 µM [cytotoxic, partial curve]
- Potency [2]: inconclusive: 14.8 µM [cytotoxic, partial curve]
- Potency [3]: inconclusive: 29.6 µM [cytotoxic, single point]
- Potency [4]: inactive
- Potency [5]: inconclusive: 13.2 µM [cytotoxic, partial curve]
- Potency [11]: inconclusive: 9.35 µM [cytotoxic, partial curve, poor fit]
- Potency [7]: inconclusive: 37.2 µM [cytotoxic, single point]
- Potency [8]: inconclusive: 33.2 µM [cytotoxic, single point]

SMILES: O=C(O)c1c(Cl)c(Cl)c(Cl)c(Cl)c1-c1c2cc(I)c(=O)c(I)c-2oc2c(I)c(O)c(I)cc12
- Potency [1]: inconclusive: 18.6 µM [cytotoxic, partial curve]
- Potency [2]: inconclusive: 14.8 µM [cytotoxic, partial curve]
- Potency [3]: active: 16.6 µM
- Potency [4]: inconclusive: 6.62 µM [cytotoxic, full curve, poor fit]
- Potency [5]: inactive
- Potency [6]: inconclusive: 14.8 µM [cytotoxic, partial curve]
- Potency [12]: inconclusive: 14.8 µM [cytotoxic, partial curve]
- Potency [11]: inconclusive: 23.5 µM [cytotoxic, single point]
- Potency [7]: inconclusive: 18.7 µM [cytotoxic, partial curve, poor fit]
- Potency [8]: inconclusive: 20.9 µM [cytotoxic, partial curve, poor fit]
- Potency [10]: active: 14.1 µM

SMILES: CNC(=O)CN1CCC(Oc2cc3c(Nc4cccc(Cl)c4F)ncnc3cc2OC)CC1
- Potency [1]: inconclusive: 9.2 µM [cytotoxic, partial curve] and inconclusive: 14.8 µM [cytotoxic, partial curve]
- Potency [2]: inconclusive: 18.6 µM [cytotoxic, partial curve]
- Potency [3]: active: 0.372 µM
- Potency [4]: inconclusive: 0.418 µM [cytotoxic, full curve]
- Potency [5]: inconclusive: 0.372 µM [cytotoxic, full curve]
- Potency [8]: inconclusive: 37.2 µM [cytotoxic, single point]
- Potency [9]: active: 0.562 µM

SMILES: NC(=O)Nc1cc(-c2cccc(F)c2)sc1C(=O)N[C@H]1CCCNC1
- Potency [1]: inactive and inconclusive: 1.9 nM [cytotoxic, full curve]
- Potency [2]: inconclusive: 0.0021 µM [cytotoxic, full curve]
- Potency [3]: active: 1.05 µM
- Potency [4]: active: 0.59 µM
- Potency [5]: inconclusive: 0.332 µM [cytotoxic, full curve]
- Potency [6]: active: 1.18 µM
- Potency [11]: inconclusive: 0.0059 µM [cytotoxic, full curve]
- Potency [8]: inconclusive: 0.0047 µM [cytotoxic, full curve]

SMILES: Nc1ncnc2c1c(-c1cccc(OCc3ccccc3)c1)cn2C1CC(CN2CCC2)C1 (centres undefined)
- Potency [1]: active: 580 nM and inconclusive: 525 nM [cytotoxic, full curve]
- Potency [2]: inconclusive: 1.66 µM [cytotoxic, full curve]
- Potency [3]: inconclusive: 20.9 µM [cytotoxic, partial curve, poor fit]
- Potency [4]: inconclusive: 14.8 µM [cytotoxic, partial curve]
- Potency [5]: inconclusive: 5.26 µM [cytotoxic, full curve]
- Potency [12]: inactive
- Potency [11]: inconclusive: 10.5 µM [cytotoxic, partial curve]
- Potency [7]: inconclusive: 16.6 µM [cytotoxic, partial curve]
- Potency [8]: inconclusive: 14.8 µM [cytotoxic, partial curve]
- activity (max response) [9]: inactive: 12.1%
